According to the supplement of paper PMC4967469:
By IC50 is meant the dose at which the fit gives 50% viability; a fit beyond the top or the lowest dose is shown as a bound at that dose. AUC sums up the same curve from the lowest dose to the 256-fold higher top dose; the more sensitive the line, the further below 1. An inferred top dose comes from the curve model; the source does not state it.

What was measured:
Assay in all cases: Viability of human cancer cell lines after 72 h of drug (GDSC screen)
NU-7441 = compound: O=c1cc(N2CCOCC2)oc2c(-c3cccc4c3sc3ccccc34)cccc12 [NU-7441]; details: top dose 2 µM; top dose inferred
Method: (§1)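 Human cancer cell lines in 384-well plates, medium with 10% serum, drug for 72 h over a 256-fold dose range (nine 2-fold or five 4-fold steps up to the top dose). Adherent lines were fixed and stained with the nucleic acid dye Syto60, suspension lines read with resazurin; signal relative to control wells, capped at 0 and 100%. One two-parameter sigmoid per drug and line, fitted in a mixed model over all curves with the slope shared within a line.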

WHI-P97 = compound: COc1cc2ncnc(Nc3cc(Br)c(O)c(Br)c3)c2cc1OC [WHI-P97]; details: top dose 10.24 µM; top dose inferred
Method: as §1

XL-184 = compound: COc1cc2nccc(Oc3ccc(NC(=O)C4(C(=O)Nc5ccc(F)cc5)CC4)cc3)c2cc1OC [XL-184]; details: top dose 5.12 µM; top dose inferred
Method: as §1

Vinorelbine = compound: CCC1=C[C@@H]2CN(C1)Cc1c([nH]c3ccccc13)[C@@](C(=O)OC)(c1cc3c(cc1OC)N(C)[C@H]1[C@@](O)(C(=O)OC)[C@H](OC(C)=O)[C@]4(CC)C=CCN5CC[C@]31[C@@H]54)C2 [Vinorelbine]; details: top dose 0.064 µM; top dose inferred
Method: as §1

EHT 1864 = compound: O=c1cc(CN2CCOCC2)occ1OCCCCCSc1ccnc2cc(C(F)(F)F)ccc12 [EHT 1864]; details: top dose 10 µM; top dose inferred
Method: as §1

QL-XI-92 = compound: C=CC(=O)Nc1cc(NC(=O)c2ccc(C)c(NC(=O)c3ccno3)c2)cc(C(F)(F)F)c1 [QL-XI-92]; details: top dose 10.24 µM; top dose inferred
Method: as §1

Phenformin = compound: N=C(N)NC(=N)NCCc1ccccc1 [Phenformin]; details: top dose 4000 µM; top dose inferred
Method: as §1

AG-014699 = compound: CNCc1ccc(-c2[nH]c3cc(F)cc4c3c2CCNC4=O)cc1 [AG-014699]; details: top dose 5 µM; top dose inferred
Method: as §1

| Cell Line | AUC (NU-7441) | IC50 (NU-7441) [µM] | AUC (WHI-P97) | IC50 (WHI-P97) [µM] | AUC (XL-184) | IC50 (XL-184) [µM] | AUC (Vinorelbine) | IC50 (Vinorelbine) [µM] | AUC (EHT 1864) | IC50 (EHT 1864) [µM] | AUC (QL-XI-92) | IC50 (QL-XI-92) [µM] | AUC (Phenformin) | IC50 (Phenformin) [µM] | AUC (AG-014699) | IC50 (AG-014699) [µM] |
| --- | --- | --- | --- | --- | --- | --- | --- | --- | --- | --- | --- | --- | --- | --- | --- | --- |
| PC-3 [JPC-3] (lung adenocarcinoma, adherent) | 0.981 | > 2 | 0.728 | 3.59 | 0.96 | > 5.12 | 0.758 | 0.0292 | 0.939 | > 10 | 0.967 | > 10.2 | 0.692 | 1040 | 0.924 | > 5 |
| RERF-GC-1B (stomach, adherent) | 0.985 | > 2 | 0.976 | > 10.2 | 0.842 | 4.2 | 0.653 | 0.0112 | 0.93 | > 10 | 0.947 | > 10.2 | 0.955 | > 4000 | 0.974 | > 5 |
| RT4 (bladder, adherent) | 0.983 | > 2 | 0.911 | > 10.2 | 0.748 | 1.73 | 0.9 | > 0.064 | 0.987 | > 10 | 0.974 | > 10.2 | 0.914 | > 4000 | 0.987 | > 5 |
| SK-CO-1 (large intestine, adherent) | 0.976 | > 2 | 0.984 | > 10.2 | 0.986 | > 5.12 | 0.63 | 0.00892 | 0.989 | > 10 | 0.989 | > 10.2 | 0.734 | 1100 | 0.988 | > 5 |
| SK-LU-1 (lung adenocarcinoma, adherent) | 0.954 | > 2 | 0.939 | > 10.2 | 0.924 | > 5.12 | 0.755 | 0.0272 | 0.959 | > 10 | 0.946 | > 10.2 | 0.846 | > 4000 | 0.943 | > 5 |
| SK-N-AS (neuroblastoma, adherent) | 0.981 | > 2 | 0.978 | > 10.2 | 0.979 | > 5.12 | 0.953 | > 0.064 | 0.947 | > 10 | 0.897 | > 10.2 | 0.697 | 986 | 0.967 | > 5 |
| SK-N-SH (neuroblastoma, adherent) | 0.968 | > 2 | 0.975 | > 10.2 | 0.937 | > 5.12 | 0.845 | 0.0456 | 0.976 | > 10 | 0.94 | > 10.2 | 0.878 | 3990 | 0.986 | > 5 |
| SK-OV-3 (ovary, adherent) | 0.978 | > 2 | 0.931 | > 10.2 | 0.938 | > 5.12 | 0.612 | 0.0088 | 0.976 | > 10 | 0.894 | > 10.2 | 0.775 | 2000 | 0.981 | > 5 |
| SNB75 (glioma, adherent) | 0.961 | > 2 | 0.979 | > 10.2 | 0.978 | > 5.12 | 0.626 | 0.0104 | 0.977 | > 10 | 0.959 | > 10.2 | 0.589 | 490 | 0.978 | > 5 |
| SU-DHL-10 (B-cell lymphoma, suspension) | 0.97 | > 2 | 0.998 | > 10.2 | 0.974 | > 5.12 | 0.42 | 0.00257 | 0.997 | > 10 | 0.954 | 9.91 | 0.426 | 166 | 0.995 | > 5 |
| SW48 (large intestine, adherent) | 0.981 | > 2 | 0.928 | > 10.2 | 0.92 | > 5.12 | 0.551 | 0.0055 | 0.946 | > 10 | 0.986 | > 10.2 | 0.803 | 1980 | 0.968 | > 5 |
| SW900 (lung squamous cell carcinoma, adherent) | 0.966 | > 2 | 0.98 | > 10.2 | 0.919 | > 5.12 | 0.565 | 0.00619 | 0.982 | > 10 | 0.985 | > 10.2 | 0.831 | 3110 | 0.941 | > 5 |
| T47D (breast, adherent) | 0.946 | > 2 | 0.974 | > 10.2 | 0.918 | > 5.12 | 0.902 | > 0.064 | 0.879 | > 10 | 0.968 | > 10.2 | 0.828 | > 4000 | 0.912 | > 5 |
| TCCSUP (bladder, adherent) | 0.971 | > 2 | 0.979 | > 10.2 | 0.958 | > 5.12 | 0.683 | 0.014 | 0.963 | > 10 | 0.974 | > 10.2 | 0.951 | > 4000 | 0.971 | > 5 |
| U031 (kidney, adherent) | 0.892 | > 2 | 0.948 | > 10.2 | 0.911 | > 5.12 | 0.969 | > 0.064 | 0.88 | > 10 | 0.973 | > 10.2 | 0.81 | 2200 | 0.945 | > 5 |
| VM-CUB-1 (bladder, adherent) | 0.939 | > 2 | 0.955 | > 10.2 | 0.978 | > 5.12 | 0.755 | 0.0211 | 0.987 | > 10 | 0.988 | > 10.2 | 0.936 | > 4000 | 0.987 | > 5 |
